Experimental findings from the RNAGym collection of RNA variant scans (doi:10.7554/elife.90254) are described below.

Sequences and labels used below:
B1: LINE1-mini (parent)
chain: GGCAGAGCUCAACACAGCGUGGCAAAGUGGCUGUGGCUAGACUGCC

Read counts are not given, so values of variants with three or more changes are uncertain.

The variants in the data set derive from B1. As to the kind of experiment: self-cleavage, relative activity (ratio to wild type); higher = more cleavage; in vitro, sequencing; the parent is a self-cleaving ribozyme.
For the variant GGCAGAGCUCAAUACAGCGUGGCAAAGUGGCUGUGGCUCGAGCACC [C13U A39C C42G U43C G44A], the self-cleavage stood at 0.01.

Turning to GGCAGAGCUCAACACAGCGUGGCAACAUGGCUGUGGCUAGUCUGCC [A26C G27A A41U], the self-cleavage turned out to be 0.24.

Regarding GGCAAAGCUCAACACAGCGUGGCAAAGUCGAUGUGGCAUGACAGCG [G5A G29C C31A U38A A39U U43A C46G], the self-cleavage stood at 0.02.

Take GGCAGAGCUGAACACAGCAUGGCAAAGUGGCUGUCGCCAGACUGCC [C10G G19A G35C U38C]: the self-cleavage was found to be 0.

Turning to GGCAGAGCUCAACACAGCGUGGCAAAGUGGCUGUGGAUAGAAUACU [C37A C42A G44A C46U], the self-cleavage amounted to 0.16.

In the case of GGCAGAGAUCAACACAACGUGGCAAAGUGUCUGUGGCUAGACCGCC [C8A G17A G30U U43C], the self-cleavage turned out to be 0.39.

Consider GGCAGAGCUCAACACAGCGAGGCAAAGCGGCUAUGGCUAGACUGCC [U20A U28C G33A], for which the self-cleavage was 0.04.

GGCAGAGCUCAACACAGCGUGGCAAAGUGCCUGUGGAUUGACAGGC [G30C C37A A39U U43A C45G]: the self-cleavage is 0.02.

As to GGGAGAGAUCAACACAGCGUGGCAAAGAGGCUGUGGCUAGACUGCC [C3G C8A U28A], the self-cleavage turned out to be 0.15.

In the case of GGCAGACCGUAACGCAGCGUGGCAAAGUGGCUGUGGCUAGACUGCC [G7C U9G C10U A14G], the self-cleavage turned out to be 0.06.

For the variant GGCAGAGCUCAACACAGCGUGUCAAAAUGGCUGUGGCUAGGCUGCC [G22U G27A A41G], the self-cleavage was determined as 0.24.

On to GGCAGAGCUGAGCACAGCGUGGCAAAGUGGAUGUGGCUAGACUGCC [C10G A12G C31A], for which the self-cleavage was 0.01.

As for GGCAAAGCUCAACACAGUGUGGCAAAGUGUCUGUGGCUAGACUGCC [G5A C18U G30U], the self-cleavage is 0.39.

On to GCCAGAGCUCAACACAGCGUGGCAAAAUGGCUGUGGCUAGAAUGCC [G2C G27A C42A], for which the self-cleavage amounted to 0.02.

Consider GGCGGAGCUGAACAAAGCGUGACAAAGUUGCUGUGGCUAGACGGCC [A4G C10G C15A G22A G29U U43G], for which the self-cleavage is 0.

For the variant GGCCGAGCUCAACAAAGCGUGGCAAUGUGGCUGUGGCUAGACUGCC [A4C C15A A26U], the self-cleavage was determined as 0.06.

GGCAGAGCUCAACACAGCGUGGCAAAGUGGCGGUGGCUGGACGGCC [U32G A39G U43G]: the self-cleavage is 0.02.

With GGCAGAGCUCAACACAGCGUGGCAGAGUGGCUGAGCCUAGACUGCC [A25G U34A G36C], the self-cleavage came out at 0.04.

GGCAGAGGUCUAGACAACGUGGCAAAGUGGCUGUGGCUAGACUGCC [C8G A11U C13G G17A]: the self-cleavage was 0.01.

In the case of GGCAGAGCUCAACACAGCGUGGCGAAGUGGCUGUGGCUAGAUUCCC [A24G C42U G44C], the self-cleavage was found to be 0.06.

For GGCGGAGCUGAACACAGCGUGGCCAAGUGUCUGUGGCUAGACUGCA [A4G C10G A24C G30U C46A], the self-cleavage is 0.01.

On to GGGAGAGCGCAACACAGCGUGGCAAAGUGGCUGUGGCUAGACUGUC [C3G U9G C45U], for which the self-cleavage was found to be 0.35.

Turning to GGCAGAGCUCAACUCAGCGUGGCAAAGUGGCUGUUGCGAGACUGCC [A14U G35U U38G], the self-cleavage stood at 0.04.

As for GGCAGAGCUCAACACAUCGGGGCAAAGUGGCUGUGGCUAGAUUGCC [G17U U20G C42U], the self-cleavage turned out to be 0.01.

As for GGCAGGGCUCAACACAGCGUGGCACAGUGUCUGUGGAUAGACUGCC [A6G A25C G30U C37A], the self-cleavage was 0.03.

As to GGCAGAGCUCAACACAGCAUGGCAAAGUGGCUGUGGAUAGACAUCC [G19A C37A U43A G44U], the self-cleavage amounted to 0.26.

On to UGCAGAGCUCUACACAGCGUGGCAAAGUGGCUGUGGCUAUACUGCC [G1U A11U G40U], for which the self-cleavage turned out to be 0.04.

As to GGCAGUACUCAACACAGCGUGGCAAAGUGGUUGUGGCUAGACUGCC [A6U G7A C31U], the self-cleavage was determined as 0.26.

As for GGCAGAGCUCAGUACAGCGUGGCUAAGUGGCUGUGGCUAGACUGCC [A12G C13U A24U], the self-cleavage was determined as 0.04.

GGCUGAGCUGAACAAAGCGUGGCAAAGUGGCUGUGGCUCGACUGCC [A4U C10G C15A A39C]: the self-cleavage was 0.03.

On to GGCAGAGCUCAACACAGCGUGGCAAGGUGGGUGUGGCUAGACAGCC [A26G C31G U43A], for which the self-cleavage is 0.03.

Consider GGCAGAGCUUAACGCAGCGUGGCAAAUUGGCUGUGGAUAGACUGCC [C10U A14G G27U C37A], for which the self-cleavage stood at 0.03.

For the variant GGCAGAACUGAACACAGCUUGGCAAAGUGGCAGUGGCUAGACUGCC [G7A C10G G19U U32A], the self-cleavage was 0.02.

Take GGCCGAGCUCAAAACACGGCGGCAAAGAGGCUGUGGCCAGACUGCC [A4C C13A G17C C18G U20C U28A U38C]: the self-cleavage was 0.08.

On to UGCAGAAGUCACCACAGCGUGGAAAAGUGGCUGUGGCUAGACUGCC [G1U G7A C8G A12C C23A], for which the self-cleavage turned out to be 0.01.

With CGCAGAGCUCAACACAGCGCGGCAAAGUGCCUAUGGCUAGACUGCC [G1C U20C G30C G33A], the self-cleavage was determined as 0.01.

As for GGCAGAGUUGAACACAGCAUGGCAAAGUGGCUGUGGCUAGACUGUC [C8U C10G G19A C45U], the self-cleavage came to 0.

Turning to GGCAAAGCUCACCACAGCGUGGCAAAGUGGCUGGGGCUAGACUGCC [G5A A12C U34G], the self-cleavage was determined as 0.01.

Turning to GGCAGGGCUCAACACAGCGUGGCUAAGUGGCUGUGGCUAGACUAAC [A6G A24U G44A C45A], the self-cleavage turned out to be 0.03.

For UGCAGAGGGCAACACAGCGUGGCAAUGAGGCUGUGGCUAGACUGCC [G1U C8G U9G A26U U28A], the self-cleavage came out at 0.01.

Turning to GGAAGAGCUCAACACCGCGUGGCAAAGUUGCUGUGGCUAGACUGCC [C3A A16C G29U], the self-cleavage stood at 0.14.

As for GGCAAAGCUCAACACAACGUUGAAAAGUGGCUGUGGCUAGACUGCC [G5A G17A G21U C23A], the self-cleavage worked out at 0.05.

Consider GGCAGGGCUCAACACAGCGCGGCAAAGUGGUUGUGGCCAGACUGCC [A6G U20C C31U U38C], for which the self-cleavage was 0.02.

As to GGCAGAGCUCGACACAGCGUGGCAUAGUGGCUGUGGCGAUACUGCC [A11G A25U U38G G40U], the self-cleavage stood at 0.01.

As to GGAAGAGCUCAACACAGCGUGGCAAAGUGGCUGUUGAUAGACUGCC [C3A G35U C37A], the self-cleavage came out at 0.23.

With GGCUGACCUCAACACAGCGAGUCAAAGGGGCUGUUGCUAGACUGCC [A4U G7C U20A G22U U28G G35U], the self-cleavage is 1.81.

Take GGCAGACCUCAACUCAGCGUGGAAAAGUGGCUGUGUCUAGACUGCC [G7C A14U C23A G36U]: the self-cleavage stood at 0.25.

Regarding GGAAGAGCUCGACACAGCGUGGUAAAGUGGCUAUGGCUAGACUGCC [C3A A11G C23U G33A], the self-cleavage stood at 0.04.

On to GGCAGAGCUCAACACAGCGUGGCCAAGUGGCUGUGGCUGGAUUGCC [A24C A39G C42U], for which the self-cleavage came to 0.07.

In the case of AGCAGAGCUCAACACAGCGUGGCAGAGUGGCGGUGGCUCGACUGGC [G1A A25G U32G A39C C45G], the self-cleavage was determined as 0.08.

For GGCAGAGCUCAUCACAACGUGGCAAAGUGGCUGUGGCUAAGCUGCC [A12U G17A G40A A41G], the self-cleavage is 0.02.

Turning to GGCCGAGCUCAAGACAGCGAGGCAAAGUGGCUGUGGCUAGACUGCC [A4C C13G U20A], the self-cleavage was 0.02.

Take GGCGGAGCUCAACACAGCGUGGCAAAGUAACUGUGGCUAGACUGCU [A4G G29A G30A C46U]: the self-cleavage was determined as 1.06.

Regarding GGCAGAGCGCAACACAGCGUGGCCAAGUGCCUGUGGCUAGACUGCC [U9G A24C G30C], the self-cleavage is 0.02.

For the variant GACAGAGCUCAAUACAGGGUGGCAAAGUGGCUGUGACUAGACUGCC [G2A C13U C18G G36A], the self-cleavage was found to be 0.1.

With GGCAGAGCUAAACACAGAGUGGCCAAGUGUCUGUGGCUAGACUGCC [C10A C18A A24C G30U], the self-cleavage was determined as 0.04.
